# At least one read-out could not be matched to a standard name with certainty.
# System: CyclinD1 (CCND1)
# Assay: Cyclin D1 (CCND1) percentage degradation in Calu-1 cells (Table 6)
# Type: cell-based
# Conditions: 16 hours
SMILES,CyclinD1 Degradation (40 nM),CyclinD1 Degradation (200 nM)
"CC(=O)c1c(C)c2cnc(Nc3ccc(N4CCN(CC(=O)NCCCNc5nc(C)ccc5C(=O)Nc5nc(C)c(C)s5)CC4)cn3)nc2n(C2CCCC2)c1=O [CPD-1, 2-((3-(2-(4-(6-((6-Acetyl-8-cyclopentyl-5-methyl-7-oxo-7,8-dihydropyrido[2,3-d]pyrimidin-2-yl)amino)pyridin-3-yl)piperazin-1-yl)acetamido)propyl)amino)-N-(4,5-dimethylthiazol-2-yl)-6-methylnicotinamide]",D (degradation activity <30%),C (30%< degradation activity <50%)
"COc1ccc(NC(=O)c2ccc(C)nc2NCCCCCCCNC(=O)CN2CCN(c3ccc(Nc4ncc5c(C)c(C(C)=O)c(=O)n(C6CCCC6)c5n4)nc3)CC2)nn1 [CPD-2, 2-((7-(2-(4-(6-((6-acetyl-8-cyclopentyl-5-methyl-7-oxo-7,8-dihydropyrido[2,3-d]pyrimidin-2-yl)amino)pyridin-3-yl)piperazin-1-yl)acetamido)heptyl)amino)-N-(6-methoxypyridazin-3-yl)-6-methylnicotinamide]",A (degradation activity >80%),A (degradation activity >80%)
"CC(=O)c1c(C)c2cnc(Nc3ccc(N4CCN(CC(=O)NCCCCCNc5nc(C)ccc5C(=O)Nc5nc(C)c(C)s5)CC4)cn3)nc2n(C2CCCC2)c1=O [CPD-3, 2-((5-(2-(4-(6-((6-acetyl-8-cyclopentyl-5-methyl-7-oxo-7,8-dihydropyrido[2,3-d]pyrimidin-2-yl)amino)pyridin-3-yl)piperazin-1-yl)acetamido)pentyl)amino)-N-(4,5-dimethylthiazol-2-yl)-6-methylnicotinamide]",A (degradation activity >80%),A (degradation activity >80%)
"CNc1ccc(C(=O)Nc2nc(C)c(C)s2)c(NCCCCCCCNC(=O)CN2CCN(c3ccc(Nc4ncc5c(C)c(C(C)=O)c(=O)n(C6CCCC6)c5n4)nc3)CC2)n1 [CPD-4, 2-((7-(2-(4-(6-((6-acetyl-8-cyclopentyl-5-methyl-7-oxo-7,8-dihydropyrido[2,3-d]pyrimidin-2-yl)amino)pyridin-3-yl)piperazin-1-yl)acetamido)heptyl)amino)-N-(4,5-dimethylthiazol-2-yl)-6-(methylamino)nicotinamide]",A (degradation activity >80%),A (degradation activity >80%)
"CNc1ccc(C(=O)Nc2ccc(N(C)C)nn2)c(NCCCCCNC(=O)CN2CCN(c3ccc(Nc4ncc5c(C)c(C(C)=O)c(=O)n(C6CCCC6)c5n4)nc3)CC2)n1 [CPD-5, 2-((5-(2-(4-(6-((6-acetyl-8-cyclopentyl-5-methyl-7-oxo-7,8-dihydropyrido[2,3-d]pyrimidin-2-yl)amino)pyridin-3-yl)piperazin-1-yl)acetamido)pentyl)amino)-N-(6-(dimethylamino)pyridazin-3-yl)-6-(methylamino)nicotinamide]",A (degradation activity >80%),A (degradation activity >80%)
"CNc1ccc(C(=O)Nc2ccc(C)c(C3CC3)n2)c(NCCCCCCCNC(=O)CN2CCN(c3ccc(Nc4ncc5c(C)c(C(C)=O)c(=O)n(C6CCCC6)c5n4)nc3)CC2)n1 [CPD-6, 2-((7-(2-(4-(6-((6-acetyl-8-cyclopentyl-5-methyl-7-oxo-7,8-dihydropyrido[2,3-d]pyrimidin-2-yl)amino)pyridin-3-yl)piperazin-1-yl)acetamido)heptyl)amino)-N-(6-cyclopropyl-5-methylpyridin-2-yl)-6-(methylamino)nicotinamide]",A (degradation activity >80%),A (degradation activity >80%)
"CNc1ccc(C(=O)Nc2ccc(C)c(C3CC3)n2)c(NCCCCCNC(=O)CN2CCN(c3ccc(Nc4ncc5c(C)c(C(C)=O)c(=O)n(C6CCCC6)c5n4)nc3)CC2)n1 [CPD-7, 2-((5-(2-(4-(6-((6-acetyl-8-cyclopentyl-5-methyl-7-oxo-7,8-dihydropyrido[2,3-d]pyrimidin-2-yl)amino)pyridin-3-yl)piperazin-1-yl)acetamido)pentyl)amino)-N-(6-cyclopropyl-5-methylpyridin-2-yl)-6-(methylamino)nicotinamide]",A (degradation activity >80%),A (degradation activity >80%)
"CC(=O)c1c(C)c2cnc(Nc3ccc(N4CCN(CC(=O)NCCCCCCCNc5nc(C)ccc5C(=O)Nc5ccc(N(C)C)nn5)CC4)cn3)nc2n(C2CCCC2)c1=O [CPD-8, 2-((7-(2-(4-(6-((6-acetyl-8-cyclopentyl-5-methyl-7-oxo-7,8-dihydropyrido[2,3-d]pyrimidin-2-yl)amino)pyridin-3-yl)piperazin-1-yl)acetamido)heptyl)amino)-N-(6-(dimethylamino)pyridazin-3-yl)-6-methylnicotinamide]",A (degradation activity >80%),A (degradation activity >80%)
"CC(=O)c1c(C)c2cnc(Nc3ccc(N4CCN(CC(=O)NCCCCCCCNc5nc(C)ccc5C(=O)Nc5ccc(C)c(C6CC6)n5)CC4)cn3)nc2n(C2CCCC2)c1=O [CPD-9, 2-((7-(2-(4-(6-((6-acetyl-8-cyclopentyl-5-methyl-7-oxo-7,8-dihydropyrido[2,3-d]pyrimidin-2-yl)amino)pyridin-3-yl)piperazin-1-yl)acetamido)heptyl)amino)-N-(6-cyclopropyl-5-methylpyridin-2-yl)-6-methylnicotinamide]",A (degradation activity >80%),A (degradation activity >80%)
"CNc1ccc(C(=O)Nc2ccc(N(C)C)nn2)c(NCCCCCCCNC(=O)CN2CCN(c3ccc(Nc4ncc5c(C)c(C(C)=O)c(=O)n(C6CCCC6)c5n4)nc3)CC2)n1 [CPD-10, 2-((7-(2-(4-(6-((6-acetyl-8-cyclopentyl-5-methyl-7-oxo-7,8-dihydropyrido[2,3-d]pyrimidin-2-yl)amino)pyridin-3-yl)piperazin-1-yl)acetamido)heptyl)amino)-N-(6-(dimethylamino)pyridazin-3-yl)-6-(methylamino)nicotinamide]",A (degradation activity >80%),A (degradation activity >80%)
"CNc1ccc(C(=O)Nc2ccc(OC)nn2)c(NCCCCCCCNC(=O)CN2CCN(c3ccc(Nc4ncc5c(C)c(C(C)=O)c(=O)n(C6CCCC6)c5n4)nc3)CC2)n1 [CPD-11, 2-((7-(2-(4-(6-((6-Acetyl-8-cyclopentyl-5-methyl-7-oxo-7,8-dihydropyrido[2,3-d]pyrimidin-2-yl)amino)pyridin-3-yl)piperazin-1-yl)acetamido)heptyl)amino)-N-(6-methoxypyridazin-3-yl)-6-(methylamino)nicotinamide]",A (degradation activity >80%),A (degradation activity >80%)
"CNc1ccc(C(=O)Nc2ccc(N(C)C)nn2)c(NCCCCCNC(=O)C(C)N2CCN(c3ccc(Nc4ncc5c(C)c(C(C)=O)c(=O)n(C6CCCC6)c5n4)nc3)CC2)n1 (centres unmarked) [CPD-14, 2-((5-(2-(4-(6-((6-Acetyl-8-cyclopentyl-5-methyl-7-oxo-7,8-dihydropyrido[2,3-d]pyrimidin-2-yl)amino)pyridin-3-yl)piperazin-1-yl)propanamido)pentyl)amino)-N-(6-(dimethylamino)pyridazin-3-yl)-6-(methylamino)nicotinamide]",A (degradation activity >80%),A (degradation activity >80%)
"CNc1ccc(C(=O)Nc2ccc(C(C)C)nn2)c(NCCCCCNC(=O)CN2CCN(c3ccc(Nc4ncc5c(C)c(C(C)=O)c(=O)n(C6CCCC6)c5n4)nc3)CC2)n1 [CPD-15, 2-((5-(2-(4-(6-((6-Acetyl-8-cyclopentyl-5-methyl-7-oxo-7,8-dihydropyrido[2,3-d]pyrimidin-2-yl)amino)pyridin-3-yl)piperazin-1-yl)acetamido)pentyl)amino)-N-(6-isopropylpyridazin-3-yl)-6-(methylamino)nicotinamide]",D (degradation activity <30%),D (degradation activity <30%)
"CC(=O)c1c(C)c2cnc(Nc3ccc(N4CCN(CC(=O)NCCCCCNc5nc(C)ccc5C(=O)Nc5ccc(N(C)C)nn5)CC4)cn3)nc2n(C2CCCC2)c1=O [CPD-16, 2-((5-(2-(4-(6-((6-Acetyl-8-cyclopentyl-5-methyl-7-oxo-7,8-dihydropyrido[2,3-d]pyrimidin-2-yl)amino)pyridin-3-yl)piperazin-1-yl)acetamido)pentyl)amino)-N-(6-(dimethylamino)pyridazin-3-yl)-6-methylnicotinamide]",A (degradation activity >80%),A (degradation activity >80%)
"CNc1ccc(C(=O)Nc2ccc(N3CCCC3)nn2)c(NCCCCCNC(=O)CN2CCN(c3ccc(Nc4ncc5c(C)c(C(C)=O)c(=O)n(C6CCCC6)c5n4)nc3)CC2)n1 [CPD-17, 2-((5-(2-(4-(6-((6-Acetyl-8-cyclopentyl-5-methyl-7-oxo-7,8-dihydropyrido[2,3-d]pyrimidin-2-yl)amino)pyridin-3-yl)piperazin-1-yl)acetamido)pentyl)amino)-6-(methylamino)-N-(6-(pyrrolidin-1-yl)pyridazin-3-yl)nicotinamide]",D (degradation activity <30%),D (degradation activity <30%)
"CC(=O)c1c(C)c2cnc(Nc3ccc(N4CCN(CC(=O)NCCCCCNc5nc(NC(C)C)ccc5C(=O)Nc5ccc(N(C)C)nn5)CC4)cn3)nc2n(C2CCCC2)c1=O [CPD-18, 2-((5-(2-(4-(6-((6-Acetyl-8-cyclopentyl-5-methyl-7-oxo-7,8-dihydropyrido[2,3-d]pyrimidin-2-yl)amino)pyridin-3-yl)piperazin-1-yl)acetamido)pentyl)amino)-N-(6-(dimethylamino)pyridazin-3-yl)-6-(isopropylamino)nicotinamide]",A (degradation activity >80%),A (degradation activity >80%)
